Measurements: PubChem BioAssay AID686979 (National Center for Advancing Translational Sciences (NCATS), 2013)
Values joined by “and” are separate entries in the source; they are usually repeats but may differ in a detail not shown here. Equal values may be shown once. The whole screen tested about 420,000 compounds, of which about 50,000 (12%) were called active. Inconclusive results, whose numbers are uncertain, are shown with a selection of clear calls. Calls follow the shape of the dose curve; as a rule, active = well fitted inhibition curve with a large enough effect; inconclusive = small, poorly fitted or top-dose-only effect; inactive = flat fitted curve, though single readings scatter. A potency beside an inconclusive call is a rough fit, not a confirmed value.

Assay: qHTS for Inhibitors of human tyrosyl-DNA phosphodiesterase 1 (TDP1): qHTS in cells in presence of CPT; also: nearly all actives have a fitted effect of over 55% in size
Conditions: chicken DT40 Tdp1-/-;hTDP1 cells + 20 nM CPT, ATP luminescence, 48 h; activity change, negative = growth inhibition: at 46.2 µM (top of the series)
In short: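 Chicken DT40 Tdp1-/- cells complemented with human TDP1, 400 cells/well, exposed to compounds plus 20 nM camptothecin for at least 48 h at 37 C; viability read as ATP content by CellTiter-Glo luminescence.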
% is scaled to controls: 0 for no effect and ±100 for the full control effect; potency is read from the fitted curve at half-maximal effect; tags tell the direction and shape of the fitted curve.

| Compound | Potency | activity change, negative = growth inhibition |
| --- | --- | --- |
| CC(C)(C)OC(=O)NCc1ccc(NC(=O)c2nc[nH]c2C(=O)Nc2cc(Br)ccc2F)cc1 | active: 10.3 µM |  |
| Brc1ccccc1CN1CCC(Cc2ccccc2)CC1 | inconclusive: 23.1 µM [inhibitor, single point] |  |
| Cc1cccc(N2CCN(C(=O)CCNS(=O)(=O)c3ccc4c(c3)oc(=O)n4C)CC2C)c1 (stereo not given) | inconclusive: 29.1 µM [inhibitor, single point] |  |
| COc1ccc(NC(=O)c2ccc(COc3ccccc3Br)o2)c(OC)c1 | inconclusive: 29.1 µM [inhibitor, single point] |  |
| O=C(NCC(c1ccco1)S(=O)(=O)c1ccc(Cl)cc1)c1ccc(C(F)(F)F)cc1 (stereo not given) | active: 9.2 µM |  |
| O=C1c2cccc3cccc(c23)C(=O)N1c1cccnc1 |  | inactive: 1.75% |
| NS(=O)(=O)c1ccc(N2CCN(C(=O)C3COc4ccccc4O3)CC2)nc1 (stereo not given) | inconclusive: 29.1 µM [inhibitor, single point] |  |
| COc1ccc(C(=O)N(Cc2ccco2)Cc2ccccc2F)cc1Cl | active: 20.6 µM |  |
| O=C(Cn1c(=O)n(Cc2ccco2)c(=O)c2sc3ccccc3c21)Nc1ccc(F)cc1F | inconclusive: 20.6 µM [inhibitor, partial curve] |  |
| CC(=O)Nc1ccc(S(=O)(=O)Nc2nc3ccccc3nc2Nc2ccc3ccccc3c2)cc1 | inconclusive: 29.1 µM [inhibitor, single point] |  |
| O=C(O)CN1C(=O)S/C(=C\c2cccnc2)C1=O |  | inactive: -1.6% |
| Cc1ncc([N+](=O)[O-])n1CCOC(=O)C12CC3CC(CC(C3)C1)C2 |  | inactive: -4.08% |
| Cc1ccc(Cc2c(C3CCCCC3)nc3ccc(Br)cn23)cc1 | inconclusive: 16.4 µM [inhibitor, single point] |  |
| Cc1ccc(Cn2c(SCc3ccc(C(=O)O)cc3)nc3cccnc32)cc1 |  | inactive: -27.1% |
| COc1ccc(C2C(C(=O)N3CCN(c4ccccn4)CC3)CC(=O)N2c2ccc(OC)cc2)cc1 (stereo not given) | inconclusive: 29.1 µM [inhibitor, single point] |  |
| COc1ccc(Cl)cc1NC(=O)c1cc(S(=O)(=O)N2CCCC2)cn1C |  | inactive: -27.2% |
| COc1cccc(NC(=O)c2ccc3c(c2)CCCC3)c1 |  | inconclusive: -32.6% [inhibitor] |
| O=C1c2ccccc2-c2onc3ccc(N4CCCC4)c1c23 | inconclusive: 29.1 µM [inhibitor, single point] |  |
| CCOC(=O)C1CCN(C(=O)c2cccc(N3C(=O)NC4CC3(C)Oc3ccc(C)cc34)c2)CC1 (stereo not given) | inconclusive: 29.1 µM [inhibitor, single point] |  |
| CCOC(=O)CCc1c(C)c2cc3c(c(C)c2oc1=O)OCN(CCc1ccccc1OC)C3 | active: 29.1 µM |  |
| Cc1cc(C)n(-c2ccc(Cl)c(C(=O)Nc3cc(C(F)(F)F)ccc3Cl)n2)n1 | inconclusive: 18.4 µM [inhibitor, partial curve, poor fit] |  |
| COc1ccc(-n2nc(C(=O)Nc3nc4ccc(OC)cc4s3)c3ccccc3c2=O)cc1 | inconclusive: 7.31 µM [inhibitor, partial curve] |  |
| CCOC(=O)C(C)Sc1nc(-c2ccccc2)nc2ccc(F)cc12 (stereo not given) | inconclusive: 25.9 µM [inhibitor, single point] |  |
| Cc1ccc(S(=O)(=O)N2CCC(C(=O)NNC(=O)C3CC3)CC2)cc1Cl |  | inactive: -1.67% |

| Compound | Potency | activity change, negative = growth inhibition |
| --- | --- | --- |
| Cc1ccc(C(=O)NC2CCN(C(=O)NCc3ccccc3)CC2)cc1 |  | inactive: 1.87% |
| CCC(=O)N1CCc2cc(Br)cc(S(=O)(=O)NC3CCN(Cc4ccccc4)CC3)c21 | inconclusive: 29.1 µM [inhibitor, single point] |  |
| COc1cccc(NC(=O)c2ccc3c(c2)OCCO3)c1 | inconclusive: 16.4 µM [inhibitor, partial curve, poor fit] |  |
| S=C(NCc1ccccc1)NCc1ccc(Cl)cc1 | inconclusive: 16.4 µM [inhibitor, single point] |  |
| CN(Cc1ccc(OC(F)F)cc1)C(=O)C1CCN(S(=O)(=O)c2ccc3c(c2)OCCO3)CC1 | inconclusive: 10.3 µM [inhibitor, partial curve] |  |
| CSc1ncc(Cl)c(C(=O)Nc2c(C(=O)c3ccc(C)cc3)oc3ccccc23)n1 |  | inactive: 5.83% |
| Cc1nnc(SCC(=O)Nc2ccc(OC(F)F)c(Cl)c2)n(N)c1=O |  | inactive: 0.412% |
| CCC(C)n1c(=O)c2sccc2n2c(CCCC(=O)Nc3ccc(F)cc3)nnc12 (stereo not given) | inconclusive: 29.1 µM [inhibitor, single point] |  |
| CCN(CCCNC(=O)CN1N=C(c2ccccc2)CCC1=O)c1cccc(C)c1 |  | inactive: -13.4% |
| CCCCCOc1ccc(Br)cc1CSC(=N)N | active: 5.17 µM |  |
| CSCCC(NS(=O)(=O)c1ccc(C)cc1)C(=O)N1CCCCCCC1 (stereo not given) | inconclusive: 16.4 µM [inhibitor, single point] |  |
| Cc1cc(C(=O)CCC(=O)N(C)CC(=O)Nc2ccc(OC(F)(F)F)cc2)c(C)s1 | inconclusive: 29.1 µM [inhibitor, single point] |  |
| Cc1cc(C(F)(F)F)nc(NCc2ccc(F)cc2)n1 | inconclusive: 11.6 µM [inhibitor, partial curve, poor fit] |  |
| O=C(C[n+]1cccc(C(=O)Nc2ccccc2)c1)c1ccccc1 | inconclusive: 29.1 µM [inhibitor, single point] |  |
| CCCC[C@@H]1CC2=C(C(=O)OC(C)(C)O2)[C@@H](c2ccc(Cl)cc2)O1 | inconclusive: 25.9 µM [inhibitor, single point] |  |
| O=c1c2ccccc2nc(/C=C/c2c[nH]c3ccccc23)n1-c1ccc([N+](=O)[O-])cc1 | active: 10.3 µM |  |
| CC(C)[C@H]1CN=C2N(C[C@H](C)NC(=O)CCC3CCCCC3)[C@H](Cc3ccc(O)cc3)CN21 | active: 6.51 µM |  |
| NC(c1ccccc1)c1cccs1 (stereo not given) |  | inactive: -20.7% |
| CCOC(=O)c1sc2nc(CC(=O)OC)nc(NCc3ccc(F)cc3)c2c1C | active: 18.4 µM |  |
| COc1ccc(-c2nn(-c3ccccc3)cc2C(=O)Nc2ccc(C(=O)O)cc2)cc1 |  | inactive: 1.53% |
| Cc1cc(OC(C)C(=O)NCc2cccnc2)c2c(C)c(Cc3ccccc3)c(=O)oc2c1 (stereo not given) | inconclusive: 11.6 µM [inhibitor, partial curve] |  |
| Cc1ccc(SCC(=O)Nc2ccc(O)c(-c3nc4cc(C)ccc4o3)c2)cc1 | inconclusive: 25.9 µM [inhibitor, single point] |  |
| Cc1ccc(NC(=O)NC(C)c2c(-n3cccc3)sc(C)c2C)c(C)c1 (stereo not given) | inconclusive: 23.1 µM [inhibitor, single point] |  |
| COC(CSc1ncnc2c1oc1nc3c(cc12)COC(C)(C)C3)OC | inconclusive: 20.6 µM [inhibitor, single point] |  |

| Compound | Potency | activity change, negative = growth inhibition |
| --- | --- | --- |
| CCOC(=O)N1CCN(C(=O)c2cn(CC)c3ccc(S(=O)(=O)N4CC(C)CC(C)C4)cc3c2=O)CC1 (stereo not given) |  | inactive: -8.62% |
| Cc1cc(O)c(C(C[N+](=O)[O-])c2ccc(Cl)cc2)c(=O)o1 (stereo not given) | inconclusive: 11.2 µM [inhibitor, partial curve] |  |
| CCOC(=O)C(C)Sc1cnccn1 (stereo not given) |  | inactive: 19% |
| CC(C)c1ccc(NC(=S)NC2CCN(Cc3ccccc3)CC2)cc1 | inconclusive: 23.1 µM [inhibitor, partial curve, poor fit] |  |
| Cc1ccccc1-n1c(SCC(=O)c2ccccc2)nnc1-c1ccc(F)cc1 | inconclusive: 18.4 µM [inhibitor, single point] |  |
| Cc1ccc2c(C)nc(/N=C(\N)NC(=O)N3c4ccccc4Sc4ccccc43)nc2c1 | inconclusive: 29.1 µM [inhibitor, single point] and inconclusive: 18.4 µM [inhibitor, single point] |  |
| Cc1[nH]c2c(C(=O)N3CCCC(CCC(=O)NCc4ccccc4F)C3)cccc2c1C (stereo not given) | inconclusive: 25.9 µM [inhibitor, single point] |  |
| COc1ccc(C2N=C(N)N=C(N)N2c2ccc(C)cc2)cc1 (stereo not given) | active: 6.51 µM |  |
| COc1ccc(C2(C)NC(=O)N(CC(=O)c3cc(C)n(C4CC4)c3C)C2=O)cc1OC (stereo not given) | active: 18.4 µM |  |
| CCc1ccc(NC(=O)C(=O)NCCOc2ccccc2Cl)cc1 | active: 16.4 µM |  |
| CC(=O)c1ccc(OCCCC(=O)Nc2cccc(S(=O)(=O)N3CCCCC3)c2)cc1 | inconclusive: 23.1 µM [inhibitor, single point] |  |
| CCCCn1c(-c2csc(C(C)C)c2)n[nH]c1=S |  | inactive: -15.2% |
| COc1ccc(NC(=O)c2ccco2)cc1NC(=O)c1cccc(C)c1OC | active: 20.6 µM |  |
| O=C(COc1ccc(Cl)cc1)NNC(=O)C(=O)NC1CCCCC1 |  | inactive: -1.32% |
| O=C(Nc1cccc(C(F)(F)F)c1)Nc1nnc([C@@H]2C[C@H](O)[C@@H](CO)O2)s1 | active: 18.4 µM |  |
| COc1cc(OC)cc(C(=O)Nc2cc(NC(=O)c3ccco3)ccc2OC)c1 | active: 23.1 µM |  |
| O=C(COC(=O)CCC(=O)c1ccc(F)cc1)Nc1nnc(-c2ccccc2)o1 | inconclusive: 18.4 µM [inhibitor, single point] |  |
| COCOCCn1cc(CN2CCS(=O)(=O)N(Cc3ccc(-c4ccc(Cl)cc4)cc3)C(C)C2=O)nn1 (stereo not given) | active: 23.1 µM |  |
| Cc1cc(Cl)ccc1N(CC(=O)NCc1ccc2c(c1)OCO2)S(C)(=O)=O | inconclusive: 29.1 µM [inhibitor, single point] |  |
| COc1ccc(NC(=O)c2cc3nc(-c4ccccc4)cc(-c4ccccc4)n3n2)c(OC)c1 | active: 11.2 µM |  |
| O=S(=O)(Nc1ccc2c(c1)nc1n2CCN(Cc2ccccc2)C1)c1ccc(Cl)cc1 | active: 18.4 µM |  |
| COC(=O)c1[nH]c2cc(C)ccc2c1NC(=O)CN1CCc2cc(OC)c(OC)cc2C1 | inconclusive: 16.4 µM [inhibitor, single point] |  |
